The list shows a part of the results.

The values below come from PMC7819943, “Rice protein-binding microarrays: a tool to detect cis-acting elements near promoter regions in rice”.

This experiment addresses T1, OsWOX13 (Oryza sativa, UniProt Q5QMM3 1-267).
T1 sequence: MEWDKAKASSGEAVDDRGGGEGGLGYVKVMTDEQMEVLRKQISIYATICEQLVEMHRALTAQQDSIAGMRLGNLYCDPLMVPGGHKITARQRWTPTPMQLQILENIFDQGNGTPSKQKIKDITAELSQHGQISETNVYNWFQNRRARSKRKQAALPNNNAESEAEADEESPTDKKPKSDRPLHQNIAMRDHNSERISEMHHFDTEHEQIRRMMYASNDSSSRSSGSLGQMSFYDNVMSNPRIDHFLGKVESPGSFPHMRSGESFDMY
Nature of the experiment: protein-binding microarray (RPBM); PBS, 2% BSA, 51.3 ng/ul salmon testes DNA, 50 uM zinc acetate, 200 nM TF, 25 C, 1 h; high values mean tight binding. The settings on record: protein: recombinant; tags: N-terminal polyhistidine and DsRed monomer fusion (pET32a); label: CyDye5-dUTP incorporated in the synthesized complementary strand; 3' TTTTT single-stranded linker to array surface; dsDNA, one strand shown. Summed up:
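In PBS with 2% BSA, salmon testes DNA and 50 µM zinc acetate, 200 nM protein was incubated on a custom Agilent array at 25 °C for 1 h and then washed off. The array had been made double-stranded by primer extension with Cy5-dUTP and blocked with 2% BSA. The proteins were transcription factors fused N-terminally to polyhistidine and DsRed, expressed in E. coli BL21-CodonPlus and purified on Ni–NTA. The binding signal is per-feature fluorescence intensity (arbitrary units) from an Axon 4000B scanner.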
As to “ACTAATAATAAAACAAATTACATATTCCGACGGTAAACTGCGGAGTCACCTAGTGCAG”, the binding signal was 8990 fluorescence intensity (a.u.). As for “TATTCATATAATCATATTGATGATTTCATAGGGTATAGTCCGGAGTCACCTAGTGCAG”, the figure is 9080 fluorescence intensity (a.u.); as for “ACCCCGCGCTAATTTAATCCGCTGCCTTCCTGGAAAGGGACGGAGTCACCTAGTGCAG”, 6260 fluorescence intensity (a.u.); as for “CTAATTAATCTATAATTAGAGAATGTTTACTGTAGCATCACGGAGTCACCTAGTGCAG”, 34400 fluorescence intensity (a.u.). As for “TTAAATCGAAATCCCGCAGTTAAATCAGAGATTTATGCAGCGGAGTCACCTAGTGCAG”, the figure is 3470 fluorescence intensity (a.u.); as for “CTCTGTTGACAGCGAGGTGCTAGCACAATCTTTTAGAGGTCGGAGTCACCTAGTGCAG”, 3510 fluorescence intensity (a.u.); as for “AAGATTTAATTACAACGAATTTAATGGTGTAATCGGATCACGGAGTCACCTAGTGCAG”, 38400 fluorescence intensity (a.u.).

As to “TTTGATAATTAGCATATCTTTAGCTGATGGTTCTAGCTTCCGGAGTCACCTAGTGCAG”, the binding signal is 33100 fluorescence intensity (a.u.). As for “CTTTCATTACTGAAAATTGTCACTAATGAACTCGAGAACGCGGAGTCACCTAGTGCAG”, the figure is 5720 fluorescence intensity (a.u.); as for “AAAATTGCTGACTAGACTGCCACGTAGACCAAAACTACTTCGGAGTCACCTAGTGCAG”, 6760 fluorescence intensity (a.u.); as for “TGACTGATGTAATATTATATTATCTATGAACCATGTTATTCGGAGTCACCTAGTGCAG”, 3370 fluorescence intensity (a.u.). As for “CCAATCAATTAATCAACCAAAAGAAACATTCCCCAACCCACGGAGTCACCTAGTGCAG”, the figure is 30800 fluorescence intensity (a.u.); as for “TAATAATTGAATTGGGGAATAATTAAAATCATCTATCTAACGGAGTCACCTAGTGCAG”, 46100 fluorescence intensity (a.u.).

Consider “CTAAAATAATTTAATAAATTGTTGCAAGAAAATCAATTGTCGGAGTCACCTAGTGCAG”, for which the binding signal is 25800 fluorescence intensity (a.u.).

Take “AGTTCAATCAGCTGCCGCAGTGGCCTGATATCAACCTCAGCGGAGTCACCTAGTGCAG”: the binding signal is 3580 fluorescence intensity (a.u.). For “ACCTAGAATGTGATTTGACCGATCCTAAAGATAACGAATCCGGAGTCACCTAGTGCAG” the value was 7090 fluorescence intensity (a.u.); for “ACGGTGTGGGGAGGTAAATTGATTCGCTGTGCTCGATTTTCGGAGTCACCTAGTGCAG”, 4600 fluorescence intensity (a.u.). For “AATAACAAAATAAATTATAGATTCTACCTGTAAACTGTGACGGAGTCACCTAGTGCAG” the value was 11500 fluorescence intensity (a.u.); for “AGAGAGATTGGGAAGCTCAAGTTAAACCAACAATGATGGCCGGAGTCACCTAGTGCAG”, 6520 fluorescence intensity (a.u.); for “CTATTCAATTTACGCCAATAGATGGGTAATGTGCTAGTGCCGGAGTCACCTAGTGCAG”, 13800 fluorescence intensity (a.u.). For “TTTAATTATTTTGATTATTTTATCATGACTTATCGGTTGTCGGAGTCACCTAGTGCAG” the value was 37500 fluorescence intensity (a.u.); for “GGTTTGACACAGATAACTATACTACTTATTCACATCTGAGCGGAGTCACCTAGTGCAG”, 6920 fluorescence intensity (a.u.); for “AGTTTGACGGAGAAATTTTGAATCTAAACACCGCCAGTGTCGGAGTCACCTAGTGCAG”, 5720 fluorescence intensity (a.u.). Consider “CTTTATTAATCTACAAACATAATTACATCGTTCACTAGAACGGAGTCACCTAGTGCAG”, for which the binding signal is 3600 fluorescence intensity (a.u.). As for “CCGGATTTCAGTTATTTCCTAATTGCATTTCTATATGGACCGGAGTCACCTAGTGCAG”, the figure is 9320 fluorescence intensity (a.u.); as for “TGACAATCATAGACCTGTAACAAACTCAACTCAACGGTCACGGAGTCACCTAGTGCAG”, 4680 fluorescence intensity (a.u.); as for “ATTAATTAAATTTTGCATAGTACCGGTACTGTGTTGGATACGGAGTCACCTAGTGCAG”, 39600 fluorescence intensity (a.u.). As for “CCTCACAAAGGGCATTAATAAATTGATATCATTATTTATGCGGAGTCACCTAGTGCAG”, the figure is 6080 fluorescence intensity (a.u.); as for “GTGGGTTACTCACTAATTGATGTGGTTATGGTTCACCAACCGGAGTCACCTAGTGCAG”, 23000 fluorescence intensity (a.u.). As for “TGTAATTATAGTATAATCGTAGTAATAATTACACTGTAACCGGAGTCACCTAGTGCAG”, the figure is 22000 fluorescence intensity (a.u.).

For the sequence “CCGTTGGATTGGATTCTTGAGCAATCTGGACGGAGATCCTCGGAGTCACCTAGTGCAG”, the binding signal was 4570 fluorescence intensity (a.u.). As for “GCATTATTAATTGATGTTGTGATATTTATATGAATACATACGGAGTCACCTAGTGCAG”, the binding signal was 25200 fluorescence intensity (a.u.).

For “ATGTGATGGAAAAGTTAGAAATTTATGTGTGTAGGAAAATCGGAGTCACCTAGTGCAG”, the binding signal was 3640 fluorescence intensity (a.u.). For “TGTGATTGGCACGTGGGTCCAACTAATACGTAGGCACTATCGGAGTCACCTAGTGCAG”, the binding signal is 39100 fluorescence intensity (a.u.).

On to “GCTTAACACAACACTTTGATTGATGAGGTTTAATTAAGAGCGGAGTCACCTAGTGCAG”, for which the binding signal is 44200 fluorescence intensity (a.u.).

For “AGTTAAATTTGAAAGAGTTTGACTTTAACCAAAGTCAAAACGGAGTCACCTAGTGCAG”, the binding signal was 3300 fluorescence intensity (a.u.). For “GGTATAACCTAAAGTTTATCCGTTTGTAGAGCGAATGTTTCGGAGTCACCTAGTGCAG” the value was 14400 fluorescence intensity (a.u.); for “TGTTTAAATTCATTAACATCTAAATGAATATAGGCAATGCCGGAGTCACCTAGTGCAG”, 4620 fluorescence intensity (a.u.). For “GGGGATGGAAGGGTGATTGAGAGTAAGAATTGGAGGTGATCGGAGTCACCTAGTGCAG” the value was 30000 fluorescence intensity (a.u.); for “TGTAAATTTGGATCAATGACATATAAGGAAAGAGCCAATTCGGAGTCACCTAGTGCAG”, 8200 fluorescence intensity (a.u.). For “TTAATTTATTTAAATATATAGGCAAGATAATAACAGCTGCCGGAGTCACCTAGTGCAG” the value was 12500 fluorescence intensity (a.u.). On to “TTCATAATTTAACATCTATCTACTTAGATTTATAGTATTACGGAGTCACCTAGTGCAG”, for which the binding signal is 13200 fluorescence intensity (a.u.).
